Experimental data reported in PubChem BioAssay AID1963576 (National Center for Advancing Translational Sciences (NCATS), 2024).
Among all 46,000 compounds or so, about 60 (0.1%) were called active. About 3% were inconclusive and are not listed. Calls come from the whole dose curve; as a rule, active = well fitted inhibition curve with a large enough effect; inconclusive = small, poorly fitted or top-dose-only effect; inactive = no such curve, though single readings can be large or run the other way. The list shows a part of the results.

assay: Primary qHTS assay for Inhibitors of ovarian cancer metastasis using an organotypic tumor microenvironment (TME) model.; note: nearly all actives have a fitted effect of over 65% in size;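 for activity change, negative = inhibition: plate controls were DMSO wells for no effect and tomatine positive control wells for full effect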; details: SKOV3ip1-GFP adhesion/invasion on 3D omental model, fluorescence; series mostly up to 45.8 µM; activity change, negative = inhibition: at the top concentration
How it was run: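 Primary human omental fibroblast/mesothelial 3D culture pre-formed 48 h. SKOV3ip1-GFP cells added with compounds (0.36-46 umol/L), incubated 2 h RT/16 h 37 C, fixed; GFP cells quantified at 488/509 nm.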

Row | Compound | outcome | activity change, negative = inhibition
1 | Cc1c(Cl)cccc1NC(=O)c1cc2sccc2n1Cc1ccc(F)cc1 | inactive | 
2 | Cc1c(C(=O)Nc2ccc(-c3nc4cc(Cl)ccc4o3)cc2)oc2ccccc12 |  | inactive: 14.3%
3 | Cc1ccccc1NC(=O)CSc1cn(CC(=O)N2CCCC2)c2ccccc12 |  | inactive: -0.656%
4 | CCCCn1c(=O)c2oc3ccccc3c2n(Cc2cccc(C)c2)c1=O |  | inactive: -9.44%
5 | COc1cc2oc(=O)c(CC(=O)NCc3ccc(OC)c(OC)c3)c(C)c2cc1Cl |  | inactive: 9.84%
6 | Cc1ccc(-c2noc(-c3ccc(N4CCCCC4C)c([N+](=O)[O-])c3)n2)cc1 (configuration not stated) |  | inactive: -4.25%
7 | CCS(=O)(=O)N1CCC2(CC1)OC(=O)C(C)=C2C(=O)NCc1ccccc1C |  | inactive: 0.82%
8 | Cc1cc(-c2ccc(S(=O)(=O)NCc3ccccc3Cl)s2)on1 | inactive | 
9 | Cc1c(-c2cccc(NC(=O)Nc3ccccc3)c2)nc2ncccn12 |  | inactive: -26%
10 | Cc1ccc(-c2cc(-c3coc4ccccc4c3=O)c3c(n2)-c2ccccc2OC3)cc1 | inactive | 
11 | Cc1ccc(S(=O)(=O)N2CCc3cc(C(=O)NCCc4ccccc4)ccc32)cc1 |  | inactive: -20.1%
12 | CC1(C)O[C@@H]2C[C@@H]3[C@H]4C[C@@H](F)C5=CC(=O)C=C[C@]5(C)[C@@]4(F)[C@@H](O)C[C@]3(C)[C@]2(C(=O)CO)O1 |  | inactive: 27.1%
13 | CCOc1ccc(NC(=O)CN2CCN(C3CCCCC3)C(=O)C2=O)cc1 | inactive | 
14 | COc1cccc(Cn2c(=O)cc(C)c3c(C)nn(-c4ccc(C)cc4)c32)c1 | inactive | 
15 | CCc1nnc2c(Nc3cccc(C(C)=O)c3)nc3ccccc3n12 |  | inactive: 11.7%
16 | COc1ccc(-c2cc(C(F)(F)F)nc(SCC(=O)NCc3ccc(OC)c(OC)c3)n2)cc1 |  | inactive: 12.9%
17 | COc1ccc2c(c1)cc1c(=O)n(CC(=O)NCc3ccco3)nc(C)n12 |  | inactive: -7.57%
18 | CCCCc1nn2c(=O)cc(COC(=O)c3cccc(OC)c3)nc2s1 | inactive | 
19 | COc1ccccc1N(CC(=O)NCCSCc1ccccc1)S(C)(=O)=O |  | inactive: 50.9%
20 | CCOC(=O)CN1C(=O)c2ccccc2Sc2ncccc21 | inactive | 
21 | COc1ccc(NC(=O)CN2C(=O)COc3ccc(S(=O)(=O)Nc4ccccc4)cc32)cc1 | inactive | 
22 | COc1ccc(C)cc1NC(=O)CN(c1ccccc1)S(=O)(=O)N(C)C |  | inactive: 13%
23 | CCCCc1nn2c(=O)cc(COC(=O)COc3ccc(C)cc3)nc2s1 |  | inactive: 124%
24 | COc1cccc(C(=O)Nc2cccc(OCc3cc(=O)n4cc(C)ccc4n3)c2)c1 |  | inactive: 24.8%
25 | CCc1ccc(CNC(=O)c2ccc3c(c2)nc2n3CCC(C)C2)cc1 (configuration not stated) | inactive | 
26 | COc1ccc(-c2onc(C)c2C)cc1S(=O)(=O)NCc1ccco1 | inactive | 
27 | CCOc1ccc(C(=O)NCc2ccc3c(c2)CCN3C(=O)c2ccccc2)cc1 |  | inactive: 14.9%
